Results taken from publication PMC9911399, “Two distinct binding modes provide the RNA-binding protein RbFox with extraordinary sequence specificity”.
Where a chain is given by its changes, count along the chain named. Some of the results follow.

B1: UCCUCCA (DNA:RNA)
RNA: GGGAGACCGGAAUUCAGAUUGUCCUCCUCCAUUAAAUCCCGUCGUAGCCACCA
DNA 1: CAATCTGAATTCCGGTCTCCC
DNA 2: TGGTGGCTACGACGGGATT
B2: UGCUUUG (DNA:RNA)
RNA: B1 RNA with C26G, C29U, C30U, A31G
DNA 1: CAATCTGAATTCCGGTCTCCC
DNA 2: TGGTGGCTACGACGGGATT
B3: UUUGUGA (DNA:RNA)
RNA: B1 RNA with C26U, C27U, U28G, C29U, C30G
DNA 1: CAATCTGAATTCCGGTCTCCC
DNA 2: TGGTGGCTACGACGGGATT
B4: UACGUGU (DNA:RNA)
RNA: B1 RNA with C26A, U28G, C29U, C30G, A31U
DNA 1: CAATCTGAATTCCGGTCTCCC
DNA 2: TGGTGGCTACGACGGGATT
B5: CAACGGG (DNA:RNA)
RNA: GGGAGACCGGAAUUCAGAUUGUCCCAACGGGUUAAAUCCCGUCGUAGCCACCA
DNA 1: CAATCTGAATTCCGGTCTCCC
DNA 2: TGGTGGCTACGACGGGATT
B6: AUAACAU (DNA:RNA)
RNA: B5 RNA with C25A, A26U, C28A, G29C, G30A, G31U
DNA 1: CAATCTGAATTCCGGTCTCCC
DNA 2: TGGTGGCTACGACGGGATT
B7: CGUGGAU (DNA:RNA)
RNA: B5 RNA with A26G, A27U, C28G, G30A, G31U
DNA 1: CAATCTGAATTCCGGTCTCCC
DNA 2: TGGTGGCTACGACGGGATT
B8: CGCGAGA (DNA:RNA)
RNA: B5 RNA with A26G, A27C, C28G, G29A, G31A
DNA 1: CAATCTGAATTCCGGTCTCCC
DNA 2: TGGTGGCTACGACGGGATT
B9: UCUACCU (DNA:RNA)
RNA: B1 RNA with C27U, U28A, A31U
DNA 1: CAATCTGAATTCCGGTCTCCC
DNA 2: TGGTGGCTACGACGGGATT
B10: GUGCCGU (DNA:RNA)
RNA: B5 RNA with C25G, A26U, A27G, G29C, G31U
DNA 1: CAATCTGAATTCCGGTCTCCC
DNA 2: TGGTGGCTACGACGGGATT
B11: UGCCUAA (DNA:RNA)
RNA: B1 RNA with C26G, U28C, C29U, C30A
DNA 1: CAATCTGAATTCCGGTCTCCC
DNA 2: TGGTGGCTACGACGGGATT
B12: GGAAGAG (DNA:RNA)
RNA: B5 RNA with C25G, A26G, C28A, G30A
DNA 1: CAATCTGAATTCCGGTCTCCC
DNA 2: TGGTGGCTACGACGGGATT
B13: UCGUGCU (DNA:RNA)
RNA: B1 RNA with C27G, C29G, A31U
DNA 1: CAATCTGAATTCCGGTCTCCC
DNA 2: TGGTGGCTACGACGGGATT
B14: UAGAACU (DNA:RNA)
RNA: B1 RNA with C26A, C27G, U28A, C29A, A31U
DNA 1: CAATCTGAATTCCGGTCTCCC
DNA 2: TGGTGGCTACGACGGGATT
B15: AGCGCCU (DNA:RNA)
RNA: B1 RNA with U25A, C26G, U28G, A31U
DNA 1: CAATCTGAATTCCGGTCTCCC
DNA 2: TGGTGGCTACGACGGGATT
B16: UGCGCAC (DNA:RNA)
RNA: B1 RNA with C26G, U28G, C30A, A31C
DNA 1: CAATCTGAATTCCGGTCTCCC
DNA 2: TGGTGGCTACGACGGGATT
B17: GGAAACA (DNA:RNA)
RNA: B1 RNA with U25G, C26G, C27A, U28A, C29A
DNA 1: CAATCTGAATTCCGGTCTCCC
DNA 2: TGGTGGCTACGACGGGATT
B18: ACACACG (DNA:RNA)
RNA: B5 RNA with C25A, A26C, G29A, G30C
DNA 1: CAATCTGAATTCCGGTCTCCC
DNA 2: TGGTGGCTACGACGGGATT
B19: GCGCUUG (DNA:RNA)
RNA: B5 RNA with C25G, A26C, A27G, G29U, G30U
DNA 1: CAATCTGAATTCCGGTCTCCC
DNA 2: TGGTGGCTACGACGGGATT
B20: UAACCUU (DNA:RNA)
RNA: B5 RNA with C25U, G29C, G30U, G31U
DNA 1: CAATCTGAATTCCGGTCTCCC
DNA 2: TGGTGGCTACGACGGGATT
B21: GGCGCUU (DNA:RNA)
RNA: B1 RNA with U25G, C26G, U28G, C30U, A31U
DNA 1: CAATCTGAATTCCGGTCTCCC
DNA 2: TGGTGGCTACGACGGGATT
B22: CGCCGGC (DNA:RNA)
RNA: B5 RNA with A26G, A27C, G31C
DNA 1: CAATCTGAATTCCGGTCTCCC
DNA 2: TGGTGGCTACGACGGGATT
B23: UACCCGC (DNA:RNA)
RNA: B5 RNA with C25U, A27C, G29C, G31C
DNA 1: CAATCTGAATTCCGGTCTCCC
DNA 2: TGGTGGCTACGACGGGATT
B24: GGGUGAU (DNA:RNA)
RNA: B5 RNA with C25G, A26G, A27G, C28U, G30A, G31U
DNA 1: CAATCTGAATTCCGGTCTCCC
DNA 2: TGGTGGCTACGACGGGATT
B25: UUGCGCG (DNA:RNA)
RNA: B5 RNA with C25U, A26U, A27G, G30C
DNA 1: CAATCTGAATTCCGGTCTCCC
DNA 2: TGGTGGCTACGACGGGATT
B26: CCCGGUA (DNA:RNA)
RNA: B1 RNA with U25C, U28G, C29G, C30U
DNA 1: CAATCTGAATTCCGGTCTCCC
DNA 2: TGGTGGCTACGACGGGATT
B27: UUAGAGA (DNA:RNA)
RNA: B5 RNA with C25U, A26U, C28G, G29A, G31A
DNA 1: CAATCTGAATTCCGGTCTCCC
DNA 2: TGGTGGCTACGACGGGATT
B28: CGUUUCG (DNA:RNA)
RNA: B5 RNA with A26G, A27U, C28U, G29U, G30C
DNA 1: CAATCTGAATTCCGGTCTCCC
DNA 2: TGGTGGCTACGACGGGATT
B29: CGGCUUG (DNA:RNA)
RNA: B5 RNA with A26G, A27G, G29U, G30U
DNA 1: CAATCTGAATTCCGGTCTCCC
DNA 2: TGGTGGCTACGACGGGATT
B30: UCGUCAU (DNA:RNA)
RNA: B1 RNA with C27G, C30A, A31U
DNA 1: CAATCTGAATTCCGGTCTCCC
DNA 2: TGGTGGCTACGACGGGATT
B31: UCGGACU (DNA:RNA)
RNA: B1 RNA with C27G, U28G, C29A, A31U
DNA 1: CAATCTGAATTCCGGTCTCCC
DNA 2: TGGTGGCTACGACGGGATT

Target: T1, RBFOX1 RRM (Homo sapiens, UniProt Q9NWB1 109-208)
T1 sequence: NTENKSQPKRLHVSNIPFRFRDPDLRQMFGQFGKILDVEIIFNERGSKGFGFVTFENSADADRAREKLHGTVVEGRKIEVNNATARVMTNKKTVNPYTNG
Experiment: EMSA; HiTS-Eq, 1 nM pool, 10 min; buffer printed only for the single-RNA assays: 10 mM Tris pH 7.5, 150 mM NaCl, 3.4 mM EDTA, 0.001% NP-40, 30 C
Conditions: tags: His6 N-terminal (pET28a); label: 5' 32P
In short: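 Purified wild-type or mutant RbFox RRM at increasing concentrations was equilibrated with 1 nM of 5′-radiolabelled RNA carrying 7 randomized nucleotides for 10 min in 50 µL. Unbound RNA was separated by 8% native PAGE and sequenced. Relative association constants came from read-count changes of each RNA species compared with the control reaction, normalised to the cognate motif.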

**Q.** With B1 as the binder, how does the binding signal read?
**A.** 0.00244 KA relative to UGCAUGU

**Q.** Which binding signal does the source give for B2 here?
**A.** 0.0377 KA relative to UGCAUGU

**Q.** Which binding signal does the source give for B3 here?
**A.** 0.0163 KA relative to UGCAUGU

**Q.** With B4 as the binder, how does the binding signal read?
**A.** 0.0158 KA relative to UGCAUGU

**Q.** B5 was tested. Which binding signal did it give?
**A.** 0.00606 KA relative to UGCAUGU

**Q.** For B6, which binding signal is on record?
**A.** 0.00129 KA relative to UGCAUGU

**Q.** Which binding signal does the source give for B7 here?
**A.** 0.0146 KA relative to UGCAUGU

**Q.** Which binding signal does the source give for B8 here?
**A.** 0.0128 KA relative to UGCAUGU

**Q.** With B9 as the binder, how does the binding signal read?
**A.** 0.00333 KA relative to UGCAUGU

**Q.** How did the binding signal turn out when B10 was run?
**A.** 0.0123 KA relative to UGCAUGU

**Q.** With B11 as the binder, how does the binding signal read?
**A.** 0.00975 KA relative to UGCAUGU

**Q.** With B12 as the binder, how does the binding signal read?
**A.** 0.0232 KA relative to UGCAUGU

**Q.** For B13, which binding signal is on record?
**A.** 0.0181 KA relative to UGCAUGU

**Q.** B14 was tested. Which binding signal did it give?
**A.** 0.00828 KA relative to UGCAUGU

**Q.** With B15 as the binder, how does the binding signal read?
**A.** 0.00967 KA relative to UGCAUGU

**Q.** B16 was tested. Which binding signal did it give?
**A.** 0.0185 KA relative to UGCAUGU

**Q.** Which binding signal does the source give for B17 here?
**A.** 0.0104 KA relative to UGCAUGU

**Q.** B18 was tested. Which binding signal did it give?
**A.** 0.0018 KA relative to UGCAUGU

**Q.** For B19, which binding signal is on record?
**A.** 0.0323 KA relative to UGCAUGU

**Q.** B20 was tested. Which binding signal did it give?
**A.** 0.00248 KA relative to UGCAUGU

**Q.** Which binding signal does the source give for B21 here?
**A.** 0.0141 KA relative to UGCAUGU

**Q.** For B22, which binding signal is on record?
**A.** 0.0134 KA relative to UGCAUGU

**Q.** Which binding signal does the source give for B23 here?
**A.** 0.00332 KA relative to UGCAUGU

**Q.** For B24, which binding signal is on record?
**A.** 0.0158 KA relative to UGCAUGU

**Q.** For B25, which binding signal is on record?
**A.** 0.0286 KA relative to UGCAUGU

**Q.** For B26, which binding signal is on record?
**A.** 0.0187 KA relative to UGCAUGU

**Q.** With B27 as the binder, how does the binding signal read?
**A.** 0.00858 KA relative to UGCAUGU

**Q.** How did the binding signal turn out when B28 was run?
**A.** 0.0144 KA relative to UGCAUGU

**Q.** B29 was tested. Which binding signal did it give?
**A.** 0.0325 KA relative to UGCAUGU

**Q.** How did the binding signal turn out when B30 was run?
**A.** 0.00535 KA relative to UGCAUGU

**Q.** With B31 as the binder, how does the binding signal read?
**A.** 0.00297 KA relative to UGCAUGU
